Results as given in FireProtDB (doi:10.1021/bi00076a015).

Settings: Homo sapiens, pH 7.2, Urea, CD, Sodium phosphate 50 mM, NaCl 0.1 M, reversible: yes

Fibroblast growth factor 2 wild type (chain not printed)
denaturant m value (15 °C): 2.7 kcal/mol/M
denaturant midpoint (higher = more stable) (15 °C): 3.9 M
unfolding free energy (15 °C): 10.5 kcal/mol
denaturant m value (25 °C): 2.44 kcal/mol/M
denaturant midpoint (higher = more stable) (25 °C): 3.8 M
unfolding free energy (25 °C): 9.3 kcal/mol
denaturant m value (35 °C): 2.55 kcal/mol/M
denaturant midpoint (higher = more stable) (35 °C): 3.5 M
unfolding free energy (35 °C): 9 kcal/mol
denaturant m value (40 °C): 2.58 kcal/mol/M
denaturant midpoint (higher = more stable) (40 °C): 2.9 M
unfolding free energy (40 °C): 7.5 kcal/mol
